# The supplement of paper PMC9446081
# Screen size: about 39,000 compounds; about 220 (0.56%) showed activity. The list shows a part of the results.
# System: Escherichia coli K-12 BW25113
# Test: relative growth (OD600 normalised to plate interquartile mean) (fraction); higher = less growth inhibition, active = 0.2 or less
# Conditions: 50 µM; LB; incubation time: overnight (16-24 h)
# 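Further: static incubation at 37 °C against the wild-type strain, values averaged over two biological replicates.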
row,SMILES,relative growth
1,C[C@H]1CN([C@@H](C)CO)C(=O)Cc2cc(NC(=O)Nc3ccc4c(c3)OCO4)ccc2O[C@@H]1CN(C)C(=O)Nc1ccc(C(F)(F)F)cc1,inactive: 1.03
2,C[C@@H]1CN([C@H](C)CO)C(=O)Cc2cc(NC(=O)NC3CCCCC3)ccc2O[C@@H]1CN(C)S(=O)(=O)c1cn(C)cn1,inactive: 0.996
3,C[C@@H]1CCCCO[C@H](CN(C)CC2CC2)[C@@H](C)CN([C@H](C)CO)C(=O)c2cc(NS(=O)(=O)c3ccc(Cl)cc3)ccc2O1,inactive: 0.996
4,Cc1noc(C)c1S(=O)(=O)Nc1cccc2c1O[C@H](CN(C)Cc1ccc(-c3ccccc3)cc1)[C@H](C)CN([C@@H](C)CO)C2=O,inactive: 1.05
5,CC(C)C(=O)NCc1ccnc(N(C)C)n1,inactive: 0.993
6,CC[C@H](NC(=O)[C@H](C)NC)C(=O)N1C[C@@H](O)C[C@H]1Cc1c(-c2[nH]c3cc(F)ccc3c2C[C@@H]2C[C@H](O)CN2C(=O)[C@H](CC)NC(=O)[C@H](C)NC)[nH]c2cc(F)ccc12,inactive: 0.889
7,C=CC[C@@H](CC(=O)N(CCO)Cc1ccccc1)C(=O)N[C@@H](COC(=O)[C@@H](CC=C)CC(=O)OC(C)(C)C)Cc1c[nH]c2ccccc12,inactive: 1.07
8,C[C@@H]1CN([C@H](C)CO)C(=O)c2cc(NC(=O)CCCN(C)C)ccc2O[C@H]1CN(C)Cc1ccc(C(=O)O)cc1,inactive: 0.997
9,CO[C@@H]1CN(C)C(=O)c2ccc(NS(C)(=O)=O)cc2OC[C@@H](C)N(C(=O)C2CCOCC2)C[C@@H]1C,inactive: 0.981
10,C[C@@H]1CCCCO[C@H](CN(C)C(=O)NC2CCCCC2)[C@H](C)CN([C@@H](C)CO)C(=O)c2cc(NC(=O)Nc3ccccc3)ccc2O1,inactive: 1.01
11,Cc1noc(C)c1S(=O)(=O)N(C)C[C@H]1Oc2ccc(NS(C)(=O)=O)cc2CC(=O)N([C@H](C)CO)C[C@@H]1C,inactive: 1.02
12,CN1C(=O)c2cc(NS(C)(=O)=O)ccc2OC[C@@H]2O[C@@H](CC(=O)N3CCOCC3)CC[C@@H]21,inactive: 0.992
13,C[C@H](CO)N1C[C@H](C)[C@H](CN(C)S(C)(=O)=O)Oc2c(NC(=O)Nc3ccc(C(F)(F)F)cc3)cccc2C1=O,inactive: 0.982
14,C[C@@H]1CN([C@@H](C)CO)C(=O)c2cc(Br)cnc2O[C@@H]1CN(C)C(=O)Nc1ccc(F)cc1,inactive: 1.01
15,C[C@@H]1CCCCO[C@@H](CN(C)C(=O)Nc2ccccc2)[C@H](C)CN([C@@H](C)CO)C(=O)c2cc(NS(=O)(=O)c3cccs3)ccc2O1,inactive: 1.02
16,C[C@@H]1CN([C@@H](C)CO)C(=O)c2cc(C#Cc3ccccc3F)cnc2O[C@H]1CN(C)C(=O)Cc1ccncc1,inactive: 0.976

row,SMILES,relative growth
1,CC(C)CC(NC(=O)C(C)NC(=O)CNC(=O)C(NC=O)C(C)C)C(=O)NC(C)C(=O)NC(C(=O)NC(C(=O)NC(C(=O)NC(Cc1c[nH]c2ccccc12)C(=O)NC(CC(C)C)C(=O)NC(Cc1c[nH]c2ccccc12)C(=O)NC(CC(C)C)C(=O)NC(Cc1c[nH]c2ccccc12)C(=O)NC(CC(C)C)C(=O)NC(Cc1c[nH]c2ccccc12)C(=O)NCCO)C(C)C)C(C)C)C(C)C (configuration not stated) [GRAMICIDIN (gramicidin A shown)],inactive: 0.896
2,COc1ccc(NC(=O)N(C)C[C@@H]2OCCCC[C@@H](C)Oc3ccc(NS(=O)(=O)c4ccc(OC)cc4)cc3C(=O)N([C@H](C)CO)C[C@H]2C)cc1,inactive: 1.03
3,C[C@@H]1CCCCO[C@H](CN(C)C(=O)Nc2ccc3c(c2)OCO3)[C@@H](C)CN([C@H](C)CO)C(=O)c2cc(NC(=O)Nc3ccccc3)ccc2O1,inactive: 0.999
4,C[C@@H]1CCCCO[C@H](CN(C)Cc2ccc(C(F)(F)F)cc2)[C@@H](C)CN([C@@H](C)CO)C(=O)c2cc(NC(=O)NC3CCCCC3)ccc2O1,inactive: 0.973
5,C[C@@H]1CN([C@@H](C)CO)C(=O)Cc2cc(NC(=O)Nc3ccc(C(F)(F)F)cc3)ccc2O[C@H]1CN(C)C(=O)NC1CCCCC1,inactive: 0.981
6,C[C@@H]1CN([C@@H](C)CO)C(=O)c2c(c3ccccc3n2C)-c2ccccc2CO[C@@H]1CN(C)C(=O)c1ccc(F)cc1,inactive: 1.03
7,C[C@@H]1CN([C@H](C)CO)C(=O)Cc2cc(NC(=O)Nc3ccc(C(F)(F)F)cc3)ccc2O[C@@H]1CN(C)C(=O)Nc1ccc(C(F)(F)F)cc1,inactive: 1.04
8,C[C@H](CO)N1C[C@H](C)[C@@H](CN(C)Cc2ccc(C(F)(F)F)cc2)Oc2ccc(NC(=O)Nc3ccccc3)cc2C1=O,inactive: 1.02
9,COc1ccc(NC(=O)Nc2ccc3c(c2)C(=O)N([C@H](C)CO)C[C@@H](C)[C@@H](CN(C)Cc2ccc(Cl)c(Cl)c2)O3)cc1,inactive: 1.03
10,C[C@H](CO)N1C[C@H](C)[C@H](CN(C)Cc2ccc(C(=O)Nc3ccccc3N)cc2)Oc2ccc(NC(=O)Cn3cnnn3)cc2CC1=O,inactive: 0.959
11,C[C@@H]1CN([C@@H](C)CO)C(=O)c2cc(NC(=O)CCC(F)(F)F)ccc2O[C@@H](C)CCCCO[C@H]1CN(C)Cc1ccncc1,inactive: 0.965
12,C[C@@H]1CN([C@H](C)CO)C(=O)c2cccc(NC(=O)c3cnccn3)c2O[C@@H]1CN(C)S(=O)(=O)c1ccc(Cl)cc1,inactive: 1.02
13,C[C@H]1CN([C@@H](C)CO)C(=O)c2cc(NS(=O)(=O)c3cn(C)cn3)ccc2O[C@@H]1CN(C)C(=O)Nc1ccc(F)cc1,inactive: 0.995
14,Cc1csc2c(N3CCC(Cn4cc(C(C)(C)N)nn4)CC3)ncnc12,inactive: 0.995
15,C[C@H]1CCCCO[C@@H](CN(C)S(=O)(=O)c2cn(C)cn2)[C@@H](C)CN([C@@H](C)CO)C(=O)c2cc(NC(=O)Nc3ccc(C(F)(F)F)cc3)ccc2O1,inactive: 1.03
16,COc1ccc(S(=O)(=O)Nc2ccc3c(c2)C(=O)N([C@H](C)CO)C[C@@H](C)[C@H](CN(C)S(=O)(=O)c2ccc(Cl)cc2)OCCCC[C@H](C)O3)cc1,inactive: 1.03
